# Experimental data published in PubChem BioAssay AID540317 (National Center for Advancing Translational Sciences (NCATS), 2011).
# The whole screen tested about 390,000 compounds, of which about 2,200 (0.56%) were called active. The shares of active, inactive and inconclusive entries below differ from those in the screen. Calls follow the shape of the dose curve; as a rule, active = well fitted inhibition curve with a large enough effect; inconclusive = small, poorly fitted or top-dose-only effect; inactive = no such curve, though single readings can be large or run the other way. Potencies of inconclusive entries are doubtful fits and often do not repeat.
# Biological target: Chromobox protein homolog 1 (Homo sapiens) (UniProt P83916)
# UniProt P83916, sequence (P83916 whole entry, looked up): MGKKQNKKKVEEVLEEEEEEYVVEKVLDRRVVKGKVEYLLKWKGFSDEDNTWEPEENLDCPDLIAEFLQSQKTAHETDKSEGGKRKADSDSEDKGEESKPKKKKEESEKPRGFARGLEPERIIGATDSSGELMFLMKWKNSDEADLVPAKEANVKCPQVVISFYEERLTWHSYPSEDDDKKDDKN
# Assay: HTS for Inhibitors of HP1-beta Chromodomain Interactions with Methylated Histone Tails; also: nearly all actives have a fitted effect of over 70% in size
# Conditions: AlphaScreen HP1-beta / biotin-H3K9me3 peptide binding; series mostly up to 114 µM; activity change, negative = inhibition: at the top concentration
# Method in brief: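 HP1-beta protein (50 nM final) preincubated 30 min at room temperature with biotinylated H3(1-18)K9me3 peptide (50 nM) in PBS pH 7.4, 0.01% Tween-20, then compound added for 30 min. AlphaScreen streptavidin donor/nickel chelate acceptor beads (10 ug/mL final), 30 min dark, luminescence read.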
# Potency is read from the fitted curve at half-maximal effect; tags tell the direction and shape of the fitted curve.
SMILES,Potency,"activity change, negative = inhibition"
O=C(NC(=S)Nn1cnnc1)c1ccc(F)cc1Cl,"inconclusive: 10 µM [inhibitor, full curve]",–
COCC(C)n1c(C)cc(C(=O)COC(=O)c2n[nH]c3ccccc23)c1C (configuration not stated),"inconclusive: 79.4 µM [inhibitor, single point]",–
O=[N+]([O-])c1cc([N+](=O)[O-])c(Oc2c(F)ccc(F)c2F)cc1NN1CCCCC1,"inconclusive: 12.6 µM [inhibitor, partial curve, poor fit]",–
O=C(O)c1cscn1,"inconclusive: 17.8 µM [inhibitor, full curve]",–
Cc1nn(C)c2c1c(C(F)(F)F)cc(=O)n2C(C)C(=O)NCCC(C)C (configuration not stated),–,inactive: 10.2%
CCN(CC)c1ccc(NC(=O)c2ccccn2)cc1S(=O)(=O)Nc1ccccc1OC,"inconclusive: 11.2 µM [inhibitor, full curve]",–
Cc1cnc(C(=O)OCC(=O)Nc2cc(Cl)cc(Cl)c2)cn1,"inconclusive: 2.24 µM [inhibitor, partial curve, poor fit]",–
CCCN1C/C(=C/c2ccc3c(c2)OCO3)C(=O)/C(=C/c2ccc3c(c2)OCO3)C1,"inconclusive: 50.1 µM [inhibitor, partial curve, poor fit]",–
CCNC(=O)NC(=O)CSc1ccc2ccccc2c1,"inconclusive: 25.1 µM [inhibitor, full curve]",–
COc1cc2c(cc1NC(=O)CCCN1C(=O)CCC1=O)oc1ccccc12,–,inactive: -0.56%
Oc1ccc2ccccc2c1C=Nc1ccccc1-c1nc2ccccc2[nH]1,"inconclusive: 50.1 µM [inhibitor, partial curve]",–
CCc1[nH]c(=S)c(C#N)c2c1CCCC2,"inconclusive: 25.1 µM [inhibitor, partial curve, poor fit]",–
O=C(CCc1ccccc1O)N/N=C/c1ccc(Sc2cccc3cccnc23)o1,"inconclusive: 31.6 µM [inhibitor, single point]",–
O=[N+]([O-])c1cccc(-c2ccc(C(=S)N3CCOCC3)o2)c1,"inconclusive: 39.8 µM [inhibitor, partial curve]",–
OC(C#CCN1CCCC1)(c1ccccc1)c1cccc(F)c1 (configuration not stated),"inconclusive: 31.6 µM [inhibitor, partial curve, poor fit]",–
O=C(O)c1ccc(Oc2ccc([N+](=O)[O-])cc2)c([N+](=O)[O-])c1,"inconclusive: 89.1 µM [inhibitor, single point]",–
O=C(COC(=O)c1ccc(Br)c(S(=O)(=O)N2CCOCC2)c1)NC1CC1,–,inactive: 28.4%
Cc1ccc(N=Nc2ccc(N)cc2C)c(S(N)(=O)=O)c1,"inconclusive: 28.2 µM [inhibitor, single point]",–
COc1ccccc1/C=C\C=N\n1c(C2CCCCC2)n[nH]c1=S,"inconclusive: 35.5 µM [inhibitor, single point]",–
O=C(COc1ccccc1)NS(=O)(=O)c1ccccc1,–,inactive: 31.5%
Cn1cccc1/C=N/n1c(-c2ccccc2)n[nH]c1=S,"inconclusive: 39.8 µM [inhibitor, partial curve, poor fit]",–
Cc1ccc(-c2cc(C(=O)N3CCN(c4ccc(O)cc4)CC3)c3ccccc3n2)cc1,"inconclusive: 20 µM [inhibitor, full curve]",–
Cc1cc(/C=N/NC(=O)CC#N)c(C)n1-c1ccc([N+](=O)[O-])cc1,"inconclusive: 70.8 µM [inhibitor, partial curve]",–

SMILES,Potency,"activity change, negative = inhibition"
Cc1ccc(C(=O)O/N=C\c2ccc(N3CCOCC3)c([N+](=O)[O-])c2)cc1,"inconclusive: 31.6 µM [inhibitor, partial curve]",–
CCOc1ccc(C(Nc2cccnc2)c2cc(Cl)c3cccnc3c2O)cc1 (configuration not stated),"inconclusive: 11.2 µM [inhibitor, full curve, poor fit]",–
CC(C(=O)Nc1ccccc1-c1ccccc1)N(C)Cc1nc2ccccc2c(=O)[nH]1 (configuration not stated),"inconclusive: 7.94 µM [inhibitor, full curve, poor fit]",–
O=C(NCc1ccc2c(c1)OCO2)C1CCCN1C(=O)Nc1ccc(Cl)cc1 (configuration not stated),–,inactive: -14.3%
CC1CN(CCOCCSc2ccc(Cl)cc2)CC(C)O1 (configuration not stated),"inconclusive: 20 µM [inhibitor, partial curve, poor fit]",–
CCOC(=O)N1CCc2c(sc(NC(C)=O)c2C(N)=O)C1,–,inactive: 46.1%
COc1ccc(CC(=O)Nc2ccc(N3CCCC3)c(C)c2)cc1,"inconclusive: 50.1 µM [inhibitor, partial curve]",–
C/C=N\NC(=O)CNC(=O)CNC(=O)c1ccccc1,"inconclusive: 89.1 µM [inhibitor, single point]",–
CCN(CC)S(=O)(=O)c1ccc2c(c1)N(CC(=O)Nc1cccnc1Cl)C(=O)CO2,–,inactive: 45.6%
COc1cccc(OCc2nnc(SCc3cc(=O)[nH]c4ccccc34)o2)c1,"inconclusive: 25.1 µM [inhibitor, full curve, poor fit]",–
NC(=S)NNC(=S)Nc1ccccc1,"inconclusive: 11.2 µM [inhibitor, partial curve, poor fit]",–
CN1c2ccccc2C(C)(C)C12C=Cc1cc(O)ccc1O2 (configuration not stated),"inconclusive: 35.5 µM [inhibitor, full curve]",–
Cc1cc(C(=O)COc2cc(F)ccc2[N+](=O)[O-])c(C)n1C1CC1,–,inactive: -6.51%
CC(NCC(=O)NC(=O)NCCC1=CCCCC1)c1ccc(S(N)(=O)=O)cc1 (configuration not stated),"inconclusive: 17.8 µM [inhibitor, full curve]",–
CC1CCCC(C)N1C(=O)COC(=O)/C=C/c1ccco1 (configuration not stated),–,inactive: 30.8%
COc1cc(OC)cc(C(=O)Nc2cc3c(cc2N2CCCC2)n(C)c(=O)c(=O)n3C)c1,–,inactive: 118%
CCc1ccc2c(CN(C)Cc3ccccc3OC)cc(=O)oc2c1,"inconclusive: 22.4 µM [inhibitor, full curve]",–
COc1ccc(S(=O)(=O)c2c(O)c3ccc(C(=O)NCc4ccc(F)cc4)cc3[nH]c2=O)cc1,"inconclusive: 7.08 µM [inhibitor, single point]",–
CCCCn1c(-c2ccc(Br)cc2F)nc2c1c(=O)[nH]c(=O)n2CC(C)C,"inconclusive: 79.4 µM [inhibitor, partial curve, poor fit]",–
COc1cc(/C=C(\C#N)C(=O)c2c[nH]c3ccccc23)cc(OC)c1O,"inconclusive: 35.5 µM [inhibitor, partial curve]",–
CCn1c(-c2ccccc2)c[nH]c1=S,"inconclusive: 22.4 µM [inhibitor, partial curve, poor fit]",–
Cc1ccc(S(=O)(=O)N2CCOCC2)cc1NC(=O)CNCc1cccnc1,"inconclusive: 25.1 µM [inhibitor, partial curve]",–
CN(C)CCNc1ccc(CO)c2sc3ccc(O)cc3c(=O)c12,active: 70.8 µM,–

SMILES,Potency,"activity change, negative = inhibition"
CCCC1=[N+](CC(C)=O)CCn2c(C)ccc21,–,inactive: 44.2%
Oc1ccc(-c2csc(NCc3ccco3)n2)cc1,"inconclusive: 15.8 µM [inhibitor, full curve]",–
Cc1cccc(C(=O)Nc2nnc(C3=COCCO3)o2)c1,–,inactive: 22.6%
CC1CCCCC1N1CCN(C(=O)c2cccc(F)c2)CC1 (configuration not stated),"inconclusive: 25.1 µM [inhibitor, single point]",–
Cc1ccccc1Nc1c(-c2ccc(N3CCOCC3)cc2)nc2ccccn12,"inconclusive: 11.2 µM [inhibitor, full curve]",–
O=C(C[n+]1cc(Br)cc2ccccc21)c1ccc(Br)cc1,–,inactive: 4.6%
CCc1ccc(NC(=O)CC2C(=O)N(c3cccc(OC)c3)C(=O)N2C2CCCC2)cc1 (configuration not stated),–,inactive: 0.444%
CCSC1=C(C#N)C(=O)n2c1cc1c2CCCC1,"inconclusive: 3.16 µM [inhibitor, full curve, poor fit]",–
COc1ccc(C2CC(c3cccs3)=NN2C(=O)c2ccco2)cc1OC (configuration not stated),–,inactive: -8.64%
CC(=O)Nc1ccc(/C(N=Nc2ccccc2)=N/N=C(N)N)cc1,"inconclusive: 70.8 µM [inhibitor, partial curve]",–
CCNc1nc(NCC)n2c(SCC(=O)Nc3ccc(Br)cc3F)nnc2n1,"inconclusive: 39.8 µM [inhibitor, partial curve]",–
Fc1ccc(CN2CCCCCCC2)cc1F,"inconclusive: 35.5 µM [inhibitor, full curve]",–
Cc1ccc(C)c(NC(=S)NCc2ccc3[nH]c4c(c3c2)CCCC4)c1,"inconclusive: 39.8 µM [inhibitor, partial curve]",–
CCOc1cc([N+](=O)[O-])cc(/C=C2/NC(=O)N(Cc3ccccc3F)C2=O)c1O,"inconclusive: 20 µM [inhibitor, partial curve, poor fit]",–
C=CCc1cccc(/C=N/NC(=O)C(=O)Nc2ccc(C)cc2)c1O,–,inactive: 5.67%
Cc1cc(C)cc(-n2c(C)cc(C(=S)N3CCOCC3)c2C)c1,"inconclusive: 44.7 µM [inhibitor, partial curve]",–
COc1ccc(N2CCN(CCC3Oc4cc([N+](=O)[O-])ccc4NC3=O)CC2)cc1 (configuration not stated),"inconclusive: 35.5 µM [inhibitor, partial curve]",–
CCOC(=O)c1c(NC(=O)CSc2nnc(C)c(=O)[nH]2)sc2c1CCCC2,"inconclusive: 35.5 µM [inhibitor, single point]",–
CC1(C)CC(=O)C2=C(C1)OC1=C(C(=O)CC(C)(C)C1)C2c1cc([N+](=O)[O-])cc([N+](=O)[O-])c1O,"inconclusive: 22.4 µM [inhibitor, full curve, poor fit]",–
O=C(NC(=S)Nc1ccc(N2CCOCC2)cc1)c1cncc(Br)c1,"inconclusive: 22.4 µM [inhibitor, partial curve, poor fit]",–
O=C1CCCC2=C1C(c1ccccc1)C1C(=O)c3ccccc3C1=N2 (configuration not stated),"inconclusive: 35.5 µM [inhibitor, partial curve, poor fit]",–
